# Measurements as given in PMC6451091.
# The other results are listed elsewhere or left out. For part of these data: At the low end of the ranking the order means little. For part of these data: Measured with an extract: partners may take part in the binding.
# How the values were obtained:
# Settings in all cases: 20 mM HEPES pH 7.9, 100 mM NaCl, 1 mM DTT, 0.2 mg/mL BSA, 0.02% Triton X-100, 2% milk, 0.4 mg/mL salmon testes DNA; 1 h; temperature not stated; high values mean tight binding; double strand, one strand shown; sequences stand for … in GCCTAGCAC…GTGCTAGGTCTTGATTCGCTTGACGCTGCTG
# PU.1 (IVT) = PU.1 (IVT) (UniProt P17947); assay: protein-binding microarray (PBM)
# [1] = biological target: PU.1 (endogenous, THP-1 nuclear extract) (UniProt P17947); assay: nuclear extract protein-binding microarray (nextPBM)
# [2] = biological target: T1, FLI1 (endogenous, THP-1 nuclear extract) (UniProt Q01543); assay: as above
# T1 sequence: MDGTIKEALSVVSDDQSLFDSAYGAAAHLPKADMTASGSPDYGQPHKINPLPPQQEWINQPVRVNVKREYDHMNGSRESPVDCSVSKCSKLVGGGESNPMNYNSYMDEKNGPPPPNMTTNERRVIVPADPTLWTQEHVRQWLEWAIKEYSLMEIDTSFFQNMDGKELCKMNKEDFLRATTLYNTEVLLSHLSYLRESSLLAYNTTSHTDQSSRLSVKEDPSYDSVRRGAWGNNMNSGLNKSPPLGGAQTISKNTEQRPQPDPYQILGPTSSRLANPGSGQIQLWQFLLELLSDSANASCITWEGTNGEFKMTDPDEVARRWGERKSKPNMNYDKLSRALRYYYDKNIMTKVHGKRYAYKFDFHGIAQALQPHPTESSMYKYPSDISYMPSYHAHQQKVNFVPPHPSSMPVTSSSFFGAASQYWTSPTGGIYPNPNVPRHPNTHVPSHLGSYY
sequence,measurement,setting,value
CAAATGTGGAAGTGATATGC,binding signal,PU.1 (IVT),4.07 z-score
same,binding signal,[1],4.12 z-score
same,binding signal,[2],1.44 z-score
AAATTAAGGAAGTGAGGGTA,binding signal,PU.1 (IVT),5.76 z-score
same,binding signal,[1],6.47 z-score
same,binding signal,[2],2.51 z-score
CAAATCAGGAACTGATGCGG,binding signal,PU.1 (IVT),3.39 z-score
same,binding signal,[1],3.84 z-score
same,binding signal,[2],1.26 z-score
GGAATGAGGAACTGACAGTG,binding signal,PU.1 (IVT),5.58 z-score
same,binding signal,[1],6.23 z-score
same,binding signal,[2],2.28 z-score
GAAAAGAGGAAGTCTTGCAT,binding signal,PU.1 (IVT),8.22 z-score
same,binding signal,[1],7.31 z-score
same,binding signal,[2],3.81 z-score
AGAATGAGGAAGTCTCTTCT,binding signal,PU.1 (IVT),7.18 z-score
same,binding signal,[1],7.09 z-score
same,binding signal,[2],3.02 z-score
GGATAGAGGAAGTCCCCTGT,binding signal,PU.1 (IVT),5.67 z-score
same,binding signal,[1],6.16 z-score
same,binding signal,[2],2.97 z-score
CCAAAGAGGAAGTCACAGCC,binding signal,PU.1 (IVT),5.73 z-score
same,binding signal,[1],6.38 z-score
same,binding signal,[2],2.86 z-score
GATGAAAGGAAGTGAAAATC,binding signal,PU.1 (IVT),2.24 z-score
same,binding signal,[1],1.71 z-score
same,binding signal,[2],2.37 z-score
TAGATGAGGAAGTGGAAGCA,binding signal,PU.1 (IVT),5.67 z-score
same,binding signal,[1],6.06 z-score
same,binding signal,[2],3.01 z-score
GAAAAGAGGAAGTCGAATTA,binding signal,PU.1 (IVT),8.06 z-score
same,binding signal,[1],7.25 z-score
same,binding signal,[2],3.89 z-score
GAAAAGAGGAAGTGGAATTT,binding signal,PU.1 (IVT),8.92 z-score
same,binding signal,[1],7.48 z-score
same,binding signal,[2],4.93 z-score
TGGCAGAGGAAGTGGCCATT,binding signal,PU.1 (IVT),3.11 z-score
same,binding signal,[1],3.05 z-score
same,binding signal,[2],2.61 z-score
GGAGTGAGGAAGTGAGACAG,binding signal,PU.1 (IVT),3.5 z-score
same,binding signal,[1],3.13 z-score
same,binding signal,[2],1.94 z-score
AGAAAGAGGAAGAGCCTCAG,binding signal,PU.1 (IVT),5.13 z-score
same,binding signal,[1],5.6 z-score
same,binding signal,[2],1.81 z-score
TGAAAGAGGAAGTGCGACCA,binding signal,PU.1 (IVT),7.37 z-score
same,binding signal,[1],6.98 z-score
same,binding signal,[2],3.76 z-score
ACAAAAAGGAACTGTGCCCG,binding signal,PU.1 (IVT),2.22 z-score
same,binding signal,[1],1.83 z-score
same,binding signal,[2],0.755 z-score
AAAAACAGGAACTGGCCAGG,binding signal,PU.1 (IVT),5.89 z-score
same,binding signal,[1],6.56 z-score
same,binding signal,[2],2.54 z-score
AGAAAGGGGAAGTGAGTAAA,binding signal,PU.1 (IVT),7.74 z-score
same,binding signal,[1],7.06 z-score
same,binding signal,[2],3.63 z-score
AAAAACAGGAAGTGGCCGGC,binding signal,PU.1 (IVT),7.9 z-score
same,binding signal,[1],7.34 z-score
same,binding signal,[2],5.13 z-score
AAAAAGAGGAAGGGACCCAA,binding signal,PU.1 (IVT),5.29 z-score
same,binding signal,[1],6.25 z-score
same,binding signal,[2],2.26 z-score
TAAATGAGGAAGTGTAGGGA,binding signal,PU.1 (IVT),7.59 z-score
same,binding signal,[1],7.45 z-score
same,binding signal,[2],3.93 z-score
CCTGTGAGGAAGTGGGGCAG,binding signal,PU.1 (IVT),3.37 z-score
same,binding signal,[1],3.63 z-score
same,binding signal,[2],1.82 z-score
TAGAAGAGGAAGTGGCCAGC,binding signal,PU.1 (IVT),5.83 z-score
same,binding signal,[1],6.6 z-score
same,binding signal,[2],3.24 z-score
TCCTTGAGGAAGTGACTCTT,binding signal,PU.1 (IVT),4.07 z-score
same,binding signal,[1],4.46 z-score
same,binding signal,[2],2.24 z-score
AGAAAAGAGAAGTGCGACTC,binding signal,PU.1 (IVT),3.35 z-score
same,binding signal,[1],3.61 z-score
same,binding signal,[2],0.776 z-score
GAAAAAAGGAAGTGGGTCAC,binding signal,PU.1 (IVT),5.92 z-score
same,binding signal,[1],6.56 z-score
same,binding signal,[2],2.92 z-score
AAAAAGCAGAAGTGTTCTGT,binding signal,PU.1 (IVT),6.88 z-score
same,binding signal,[1],6.72 z-score
same,binding signal,[2],2.53 z-score
GTCATGAGGAAGTGAATGCT,binding signal,PU.1 (IVT),5.04 z-score
same,binding signal,[1],5.3 z-score
same,binding signal,[2],2.73 z-score
CAAGAGGGGAAGTGCCTTGC,binding signal,PU.1 (IVT),3.97 z-score
same,binding signal,[1],4.59 z-score
same,binding signal,[2],2.08 z-score
GAACACAGGAAGTCCCATAG,binding signal,PU.1 (IVT),1.71 z-score
same,binding signal,[1],2.08 z-score
same,binding signal,[2],4.06 z-score
GGGGTGAGGAAGTGAAATGA,binding signal,PU.1 (IVT),3.82 z-score
same,binding signal,[1],3.43 z-score
same,binding signal,[2],2.22 z-score
AGCAACAGGAAGTGCACGAC,binding signal,PU.1 (IVT),4.4 z-score
same,binding signal,[1],4.21 z-score
same,binding signal,[2],4.86 z-score
GAAAACAGGAAGTCGCATAG,binding signal,PU.1 (IVT),6.79 z-score
same,binding signal,[1],6.99 z-score
same,binding signal,[2],4.84 z-score
CAAGGAAGGAAGTGGACCAG,binding signal,PU.1 (IVT),1.61 z-score
same,binding signal,[1],2.2 z-score
same,binding signal,[2],2.07 z-score
GAAAAGAGGAACTCAAATTG,binding signal,PU.1 (IVT),7.12 z-score
same,binding signal,[1],6.82 z-score
same,binding signal,[2],2.77 z-score
TGATAAGGGAAGTGAAGCTC,binding signal,PU.1 (IVT),3.39 z-score
same,binding signal,[1],3.7 z-score
same,binding signal,[2],1.79 z-score
AAGGAGAGGAAGTGGGTGTC,binding signal,PU.1 (IVT),3.99 z-score
same,binding signal,[1],4.02 z-score
same,binding signal,[2],3.17 z-score
GCCATGGGGAAGTGGGGCTG,binding signal,PU.1 (IVT),3.5 z-score
same,binding signal,[1],4.15 z-score
same,binding signal,[2],1.41 z-score
GGGCTGAGGAAGTGGAAGGG,binding signal,PU.1 (IVT),2.47 z-score
same,binding signal,[1],2.55 z-score
same,binding signal,[2],2.17 z-score
AAAAACAGGAAGTCCCATTT,binding signal,PU.1 (IVT),7.62 z-score
same,binding signal,[1],7.27 z-score
same,binding signal,[2],4.89 z-score
AGAAAGAGGAAGAGCTGCCA,binding signal,PU.1 (IVT),4.1 z-score
same,binding signal,[1],5.22 z-score
same,binding signal,[2],2.05 z-score
